According to the supplement of paper PMC4967469:
By IC50 is meant the dose at which the fit gives 50% viability; a fit beyond the top or the lowest dose is shown as a bound at that dose. AUC sums up the same curve from the lowest dose to the 256-fold higher top dose; the more sensitive the line, the further below 1. For some of these results: An inferred top dose comes from the curve model; the source does not state it.

What was measured:
Assay in all cases: Viability of human cancer cell lines after 72 h of drug (GDSC screen)
GW-2580 = compound: COc1ccc(COc2ccc(Cc3cnc(N)nc3N)cc2OC)cc1 [GW-2580]; details: top dose 20 µM; top dose inferred
Method: (§1)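 Human cancer cell lines in 384-well plates, medium with 10% serum, drug for 72 h over a 256-fold dose range (nine 2-fold or five 4-fold steps up to the top dose). Adherent lines were fixed and stained with the nucleic acid dye Syto60, suspension lines read with resazurin; signal relative to control wells, capped at 0 and 100%. One two-parameter sigmoid per drug and line, fitted in a mixed model over all curves with the slope shared within a line.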

VX-680 = compound: Cc1cc(Nc2cc(N3CCN(C)CC3)nc(Sc3ccc(NC(=O)C4CC4)cc3)n2)n[nH]1 [VX-680]; details: top dose 2 µM
Method: as §1

Bryostatin 1 = compound: CCC/C=C/C=C/C(=O)O[C@H]1/C(=C/C(=O)OC)C[C@H]2C[C@H]([C@@H](C)O)OC(=O)C[C@H](O)C[C@@H]3C[C@H](OC(C)=O)C(C)(C)[C@](O)(C[C@@H]4C/C(=C/C(=O)OC)C[C@H](/C=C/C(C)(C)[C@]1(O)O2)O4)O3 [Bryostatin 1]; details: top dose 0.008 µM; top dose inferred
Method: as §1

Lenalidomide = compound: Nc1cccc2c1CN(C1CCC(=O)NC1=O)C2=O [Lenalidomide]; details: top dose 5 µM; top dose inferred
Method: as §1

SGC0946 = compound: CC(C)N(CCCNC(=O)Nc1ccc(C(C)(C)C)cc1)C[C@H]1O[C@@H](n2cc(Br)c3c(N)ncnc32)[C@H](O)[C@@H]1O [SGC0946]; details: top dose 0.5 µM; top dose inferred
Method: as §1

| Cell Line | AUC (GW-2580) | IC50 (GW-2580) [µM] | AUC (VX-680) | IC50 (VX-680) [µM] | AUC (Bryostatin 1) | IC50 (Bryostatin 1) [µM] | AUC (Lenalidomide) | IC50 (Lenalidomide) [µM] | AUC (SGC0946) | IC50 (SGC0946) [µM] |
| --- | --- | --- | --- | --- | --- | --- | --- | --- | --- | --- |
| ALL-PO (lymphoblastic leukaemia, suspension) | 0.929 | > 20 | 0.587 | 0.219 | 0.98 | > 0.008 | 0.871 | > 5 | 0.981 | > 0.5 |
| ALL-SIL (T-cell leukaemia, suspension) | 0.989 | > 20 | 0.196 | 0.0186 | 0.989 | > 0.008 | 0.986 | > 5 | 0.988 | > 0.5 |
| AM-38 (glioma, semi-adherent) | 0.987 | > 20 | 0.988 | > 2 | 0.986 | > 0.008 | 0.981 | > 5 | 0.985 | > 0.5 |
| AMO-1 (haematopoietic neoplasm, suspension) | 0.945 | > 20 | 0.915 | > 2 | 0.986 | > 0.008 | 0.984 | > 5 | 0.981 | > 0.5 |
| ARH-77 (myeloma, suspension) | 0.987 | > 20 | 0.958 | > 2 | 0.987 | > 0.008 | 0.967 | > 5 | 0.983 | > 0.5 |
| BC-1 (B-cell lymphoma, suspension) | 0.931 | > 20 | 0.967 | > 2 | 0.991 | > 0.008 | 0.985 | > 5 | 0.98 | > 0.5 |
| BE2-M17 (neuroblastoma, adherent) | 0.981 | > 20 | 0.9 | > 2 | 0.987 | > 0.008 | 0.987 | > 5 | 0.985 | > 0.5 |
| BE-13 (lymphoblastic leukaemia, suspension) | 0.975 | > 20 | 0.372 | 0.0567 | 0.975 | > 0.008 | 0.982 | > 5 | 0.986 | > 0.5 |
| BL-41 (Burkitt lymphoma, suspension) | 0.994 | > 20 | 0.49 | 0.118 | 0.975 | > 0.008 | 0.994 | > 5 | 0.987 | > 0.5 |
| BV-173 (chronic myeloid leukaemia, suspension) | 0.989 | > 20 | 0.439 | 0.087 | 0.973 | > 0.008 | 0.944 | > 5 | 0.982 | > 0.5 |
| C2BBe1 (large intestine, adherent) | 0.984 | > 20 | 0.981 | > 2 | 0.984 | > 0.008 | 0.98 | > 5 | 0.982 | > 0.5 |
| CA46 (Burkitt lymphoma, suspension) | 0.983 | > 20 | 0.957 | > 2 | 0.985 | > 0.008 | 0.984 | > 5 | 0.979 | > 0.5 |
| CHP-126 (neuroblastoma, suspension) | 0.987 | > 20 | 0.94 | > 2 | 0.985 | > 0.008 | 0.984 | > 5 | 0.968 | > 0.5 |
| CL-11 (large intestine, adherent) | 0.976 | > 20 | 0.966 | > 2 | 0.987 | > 0.008 | 0.984 | > 5 | 0.976 | > 0.5 |
| COLO-320-HSR (large intestine, suspension) | 0.989 | > 20 | 0.957 | > 2 | 0.989 | > 0.008 | 0.988 | > 5 | 0.99 | > 0.5 |
| COLO-684 (endometrium, suspension) | 0.985 | > 20 | 0.875 | > 2 | 0.973 | > 0.008 | 0.984 | > 5 | 0.979 | > 0.5 |
| COR-L95 (small cell lung carcinoma, adherent) | 0.965 | > 20 | 0.98 | > 2 | 0.984 | > 0.008 | 0.987 | > 5 | 0.985 | > 0.5 |
| COR-L279 (small cell lung carcinoma, suspension) | 0.921 | > 20 | 0.888 | 1.84 | 0.99 | > 0.008 | 0.99 | > 5 | 0.989 | > 0.5 |
| D-263MG (glioma, adherent) | 0.983 | > 20 | 0.982 | > 2 | 0.944 | > 0.008 | 0.971 | > 5 | 0.98 | > 0.5 |
| D-283MED (medulloblastoma, adherent) | 0.988 | > 20 | 0.99 | > 2 | 0.991 | > 0.008 | 0.972 | > 5 | 0.99 | > 0.5 |

| Cell Line | AUC (GW-2580) | IC50 (GW-2580) [µM] | AUC (VX-680) | IC50 (VX-680) [µM] | AUC (Bryostatin 1) | IC50 (Bryostatin 1) [µM] | AUC (Lenalidomide) | IC50 (Lenalidomide) [µM] | AUC (SGC0946) | IC50 (SGC0946) [µM] |
| --- | --- | --- | --- | --- | --- | --- | --- | --- | --- | --- |
| DJM-1 (skin, adherent) | 0.988 | > 20 | 0.88 | > 2 | 0.987 | > 0.008 | 0.968 | > 5 | 0.987 | > 0.5 |
| DMS-114 (small cell lung carcinoma, adherent) | 0.965 | > 20 | 0.95 | > 2 | 0.977 | > 0.008 | 0.985 | > 5 | 0.983 | > 0.5 |
| EB2 (Burkitt lymphoma, suspension) | 0.982 | > 20 | 0.99 | > 2 | 0.99 | > 0.008 | 0.99 | > 5 | 0.989 | > 0.5 |
| EB-3 (Burkitt lymphoma, suspension) | 0.973 | > 20 | 0.966 | > 2 | 0.982 | > 0.008 | 0.984 | > 5 | 0.975 | > 0.5 |
| EC-GI-10 (oesophagus, adherent) | 0.981 | > 20 | 0.988 | > 2 | 0.988 | > 0.008 | 0.988 | > 5 | 0.987 | > 0.5 |
| EM-2 (chronic myeloid leukaemia, suspension) | 0.982 | > 20 | 0.633 | 0.305 | 0.973 | > 0.008 | 0.97 | > 5 | 0.979 | > 0.5 |
| ES1 (Ewing sarcoma, adherent) | 0.982 | > 20 | 0.883 | > 2 | 0.973 | > 0.008 | 0.972 | > 5 | 0.984 | > 0.5 |
| ES4 (Ewing sarcoma, adherent) | 0.98 | > 20 | 0.74 | 0.682 | 0.982 | > 0.008 | 0.969 | > 5 | 0.98 | > 0.5 |
| ES5 (Ewing sarcoma, adherent) | 0.969 | > 20 | 0.977 | > 2 | 0.982 | > 0.008 | 0.979 | > 5 | 0.981 | > 0.5 |
| ES7 (Ewing sarcoma, adherent) | 0.979 | > 20 | 0.981 | > 2 | 0.983 | > 0.008 | 0.984 | > 5 | 0.982 | > 0.5 |
| ES8 (Ewing sarcoma, adherent) | 0.985 | > 20 | 0.215 | 0.0198 | 0.976 | > 0.008 | 0.98 | > 5 | 0.986 | > 0.5 |
| EW-3 (Ewing sarcoma, adherent) | 0.984 | > 20 | 0.96 | > 2 | 0.98 | > 0.008 | 0.978 | > 5 | 0.971 | > 0.5 |
| EW-11 (Ewing sarcoma, adherent) | 0.981 | > 20 | 0.981 | > 2 | 0.955 | > 0.008 | 0.96 | > 5 | 0.943 | > 0.5 |
| EW-13 (Ewing sarcoma, suspension) | 0.963 | > 20 | 0.976 | > 2 | 0.922 | > 0.008 | 0.98 | > 5 | 0.984 | > 0.5 |
| EW-16 (Ewing sarcoma, adherent) | 0.985 | > 20 | 0.448 | 0.0894 | 0.969 | > 0.008 | 0.937 | > 5 | 0.98 | > 0.5 |
| EW-18 (Ewing sarcoma, suspension) | 0.986 | > 20 | 0.986 | > 2 | 0.977 | > 0.008 | 0.956 | > 5 | 0.981 | > 0.5 |
| EW-24 (Ewing sarcoma, semi-adherent) | 0.992 | > 20 | 0.99 | > 2 | 0.992 | > 0.008 | 0.986 | > 5 | 0.971 | > 0.5 |
| EoL-1-cell (haematopoietic neoplasm, suspension) | 0.975 | > 20 | 0.615 | 0.248 | 0.922 | > 0.008 | 0.972 | > 5 | 0.978 | > 0.5 |
| Farage (B-cell lymphoma, suspension) | 0.993 | > 20 | 0.911 | 1.95 | 0.947 | > 0.008 | 0.987 | > 5 | 0.982 | > 0.5 |
| GB-1 (glioma, adherent) | 0.932 | > 20 | 0.833 | 1.63 | 0.98 | > 0.008 | 0.955 | > 5 | 0.98 | > 0.5 |
